{"source": "PubChem BioAssay AID1347120", "about": "(National Center for Advancing Translational Sciences (NCATS), 2019)", "note": "The campaign covered roughly 390,000 compounds. About 930 (0.24%) were called active. Inconclusive means that the source gave no clear call. Such entries were picked first, then a sample of the others. Calls follow the shape of the dose curve; as a rule, active = well fitted activation curve with a large enough effect; inconclusive = small, poorly fitted or top-dose-only effect; inactive = no such curve, though single readings can be large or run the other way. Potencies of inconclusive entries are doubtful fits and often do not repeat. Potency is read from the fitted curve at half-maximal effect; tags tell the direction and shape of the fitted curve.", "data": [{"assay": "qHTS for Suppressors of FUS Proteinopathy: Primary screen using FUS-linked yeast assay; also: nearly all actives have a fitted effect of over 55% in size;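 as to growth rescue (activation): plate controls were DMSO vehicle for no effect and reference control for full effect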", "conditions": "S. cerevisiae FUS-expressing, OD600, 24 h; Potency: growth rescue; growth rescue (activation): at 76.6 µM (top of the series)", "summary_of_the_method": "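Galactose (2%) drives FUS expression in yeast precultured in raffinose; seeding density OD 0.005. Test compounds incubated 24hr at 30C and 99% humidity before absorbance at 600 nm was measured.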", "values": [{"smiles": "CC(C)Sc1ncc(Cl)c(C(=O)Nc2ccc(S(=O)(=O)N(C)c3ccccc3)cc2)n1", "Potency": "inconclusive: 20 µM [activator, partial curve, poor fit]"}, {"smiles": "CC(C)(C)OC(=O)NCCCCCNC(=O)c1[nH]cnc1C(=O)N[C@@H](CCCCNC(=O)OC(C)(C)C)C(=O)OC(C)(C)C", "Potency": "inconclusive: 12.6 µM [activator, partial curve]"}, {"smiles": "CC1Cc2cc(S(=O)(=O)N3CCCC(C(=O)N4CCCCC4)C3)ccc2N1C(=O)C1CC1", "note": "(stereo unspecified)", "Potency": "inactive"}, {"smiles": "CC(OC(=O)c1cc(-c2cccnc2)nc2ccccc12)C(=O)Nc1ccc2ccccc2c1", "note": "(stereo unspecified)", "Potency": "active: 5.62 µM"}, {"smiles": "COc1ccc(C2c3ccc4ccccc4c3Oc3ncn(CCN4CCOCC4)c(=N)c32)cc1OC", "note": "(stereo unspecified)", "Potency": "inconclusive: 28.2 µM [activator, single point]"}, {"smiles": "CCc1ccc(C(=O)c2cn(CC(=O)Nc3ccc(C)c(C)c3)c3ccccc3c2=O)cc1", "Potency": "inconclusive: 31.6 µM [activator, partial curve, poor fit]"}, {"smiles": "COc1ccc(S(=O)(=O)N2CCOCC2)cc1NC(=O)COC(=O)CCOc1ccc(C)cc1", "Potency": "inconclusive: 20 µM [activator, partial curve, poor fit]"}, {"smiles": "COc1ccc2c(c1)c1c(c(=O)n(-c3ccccc3)c(=O)n1CC(=O)Nc1ccc(C)c(C)c1)n2C", "Potency": "inactive"}, {"smiles": "CCOC(=O)C(NC(=O)NC1CCCCC1)(c1ccccc1)C(F)(F)F", "note": "(stereo unspecified)", "growth rescue (activation)": "inconclusive: 13.1% [activator]"}, {"smiles": "O=[N+]([O-])c1cccc(SSc2cccc([N+](=O)[O-])c2)c1", "Potency": "inactive"}, {"smiles": "Cc1nc(N2CCCC2)ncc1C(=O)Nc1ccc(F)cc1F", "Potency": "inactive"}, {"smiles": "CCOc1cc(/C=C2/C(=O)ON=C2C)ccc1O", "Potency": "inactive"}, {"smiles": "C=CCN1[C@H](C#N)[C@@H](c2ccc(C#Cc3cccc(OC)c3)cc2)[C@H]1CO", "Potency": "inactive"}, {"smiles": "COc1ccc(OCC(=O)Nc2cccc(-c3nc4ccccc4s3)c2C)cc1", "Potency": "inactive"}, {"smiles": "CCC1CN(C(=O)N2CCC(C(=O)NCc3ccccc3C)CC2)c2ccccc2O1", "note": "(stereo unspecified)", "Potency": "inconclusive: 17.8 µM [activator, partial curve]"}, {"smiles": "Oc1c(C(Nc2cccc(C(F)(F)F)c2)c2ccncc2)ccc2cccnc12", "note": "(stereo unspecified)", "Potency": "inconclusive: 35.5 µM [activator, partial curve, poor fit]"}, {"smiles": "O=C(CSc1ccc2nnc(-c3ccccn3)n2n1)Nc1ccccc1", "Potency": "inconclusive: 1 µM [activator, full curve, poor fit]"}, {"smiles": "O=C(CSCSCC(=O)NCC1CCCO1)NCC1CCCO1", "note": "(stereo unspecified)", "Potency": "inconclusive: 0.891 µM [activator, full curve, poor fit]"}, {"smiles": "Cc1ccc(Cn2c(C)c(CNCCCc3ccccc3)c(C(=O)O)c2C)cc1", "Potency": "inactive"}, {"smiles": "O=C(O)c1cc([N+](=O)[O-])ccc1NCc1ccccc1", "Potency": "inactive"}, {"smiles": "COC(=O)Cn1c(O)c(N=NC(=O)CNC(=O)c2ccc3c(c2)OCCO3)c2ccccc21", "Potency": "inconclusive: 31.6 µM [activator, single point]"}, {"smiles": "Cc1ccc(C(=O)N2CCC3(CC2)Oc2ccc(Cl)cc2C(=O)C32CC(c3cccnc3)=NO2)s1", "note": "(stereo unspecified)", "Potency": "inconclusive: 35.5 µM [activator, single point]"}, {"smiles": "COc1ccccc1/C=N\\Nc1cc(C)nc(-n2nc(C)cc2C)n1", "Potency": "inconclusive: 8.91 µM [activator, partial curve, poor fit]"}, {"smiles": "COc1cccc(C2C(C(=O)Nc3ccccc3)=C(C)Nc3nc(-c4ccccc4)nn32)c1OC", "note": "(stereo unspecified)", "Potency": "inconclusive: 25.1 µM [activator, partial curve, poor fit]"}, {"smiles": "NC(=O)C1=C[C@H](c2csc3ccccc23)C[C@H](OCc2ccc(CO)cc2)O1", "Potency": "inconclusive: 25.1 µM [activator, single point]"}, {"smiles": "COc1ccc(-c2ccc(C(=O)NCC3CC3)c3occc23)c(C)c1", "Potency": "inactive"}, {"smiles": "CCCCC1=CC2=C(c3ccco3)C(=O)C(C)(OC(=O)c3ccc(OC)cc3)C(=O)C2=CN1CCCCO", "note": "(stereo unspecified)", "Potency": "inconclusive: 39.8 µM [activator, single point]"}, {"smiles": "Cc1ccc(-c2nn3c(C)nnc3s2)cc1NC(=O)c1ccc(-c2ccc(Cl)cc2Cl)o1", "Potency": "inconclusive: 15.8 µM [activator, partial curve, poor fit]"}, {"smiles": "Cn1ncc(C(=O)N2CCN(c3ccc(F)cc3)CC2)c1C1CCN(C(=O)OC(C)(C)C)CC1", "Potency": "inconclusive: 20 µM [activator, partial curve, poor fit]"}, {"smiles": "CCC(C)(C)NC(=O)C(c1ccc(OC)cc1)N(C(=O)CCC(=O)Nc1cc(C)on1)c1ccc2c(c1)OCCO2", "note": "(stereo unspecified)", "Potency": "inconclusive: 14.1 µM [activator, partial curve]"}, {"smiles": "O=C1CC(c2ccc3c(c2)OCCO3)Oc2ccccc21", "note": "(stereo unspecified)", "Potency": "inactive"}, {"smiles": "CCCCCc1ccc(C(=O)CCC(=O)OCC(=O)N(CC)c2c(N)n(Cc3ccccc3)c(=O)[nH]c2=O)cc1", "Potency": "inconclusive: 39.8 µM [activator, single point]"}, {"smiles": "COc1nc(-c2ccc(C)cc2)ccc1-c1noc(-c2ccco2)n1", "Potency": "inactive"}, {"smiles": "C[C@@H]1C=C[C@](Cc2ccccc2)(C(=O)NCCc2c[nH]c3ccccc23)N1C(=O)c1ccccc1", "Potency": "inconclusive: 44.7 µM [activator, single point]"}, {"smiles": "O=C(Nc1ccc(F)cc1F)N1CCCC(c2nc(-c3ccc(F)cc3)no2)C1", "note": "(stereo unspecified)", "Potency": "inconclusive: 50.1 µM [activator, single point]"}, {"smiles": "Cc1cc(NC(=O)COc2ccccc2)cc(-c2nc3ccccc3o2)c1O", "Potency": "inactive"}, {"smiles": "O=C(c1ccc(F)cc1)N1CCC(C(=O)N2CCCc3ccccc32)CC1", "Potency": "inactive"}, {"smiles": "NS(=O)(=O)c1ccc(N/N=C/c2cn(-c3ccccc3)nc2-c2cccs2)cc1", "Potency": "inconclusive: 25.1 µM [activator, partial curve, poor fit]"}, {"smiles": "COc1ccccc1N1CCN(C(=O)COc2cccc3ccccc23)CC1", "Potency": "inconclusive: 28.2 µM [activator, single point]"}, {"smiles": "CC(C)n1c(SCC(=O)Nc2ccc(F)cc2)nc2c(oc3ccccc32)c1=O", "Potency": "inactive"}, {"smiles": "COc1ccc(Cl)cc1C(=O)Nc1nnn(C)n1", "growth rescue (activation)": "inconclusive: 69.4% [activator]"}, {"smiles": "CC1(C)CCN2CCC(C)(C)c3c(O)ccc1c32", "Potency": "inconclusive: 15.8 µM [activator, partial curve]"}, {"smiles": "COC(=O)[C@]12C[C@H](CC(=O)N3CCN(C(=O)c4ccco4)CC3)C(=O)N(Cc3cccc4ccccc34)C1=C[C@H](C1CCCC1)O[C@@H]2C", "Potency": "active: 15.8 µM"}, {"smiles": "CCOc1ccc(NC(=O)CN(C)C(=O)Cc2c[nH]c3ccccc23)cc1OCC", "Potency": "inconclusive: 14.1 µM [activator, partial curve, poor fit]"}, {"smiles": "CCN1C(=O)[C@@H]2[C@@H](c3ccc(-c4ccc(C(C)=O)cc4)c(OC)c3)N3CCC[C@@]3(C(=O)OC)[C@@H]2C1=O", "Potency": "inconclusive: 28.2 µM [activator, single point]"}, {"smiles": "CC(=O)c1c(N2CCOCC2)nc2ccc(Br)cc2c1-c1ccccc1", "Potency": "inactive"}, {"smiles": "CC(=O)Nc1cc(-c2cccc(NS(C)(=O)=O)c2)cn2c(-c3cccc(C(F)(F)F)c3)cnc12", "Potency": "inconclusive: 35.5 µM [activator, single point]"}, {"smiles": "COc1ccc(-c2cc(NC=O)c3ncc(-c4ccc(OC)c(OC)c4)n3c2)cc1", "Potency": "inconclusive: 50.1 µM [activator, single point]"}, {"smiles": "COc1ccc(CNC(=O)CCC(=O)N2CC3CCCN3c3ccccc32)c(OC)c1", "note": "(stereo unspecified)", "Potency": "inconclusive: 22.4 µM [activator, partial curve, poor fit]"}, {"smiles": "COc1ccc(/C=C/C(=O)Nc2sc3c(c2C(N)=O)CCC(C)C3)cc1OC", "note": "(stereo unspecified)", "Potency": "inactive"}, {"smiles": "O=C(c1ccc(CS(=O)Cc2ccccc2Cl)o1)N1CCN(c2cccc(Cl)c2)CC1", "note": "(stereo unspecified)", "Potency": "inconclusive: 28.2 µM [activator, partial curve]"}, {"smiles": "COC(=O)c1[nH]c2ccc(C)cc2c1NC(=O)CN1CCc2cc(OC)c(OC)cc2C1", "Potency": "inconclusive: 2.51 µM [activator, full curve]"}, {"smiles": "COc1ccc(NC(=O)CSc2oc(-c3cccs3)nc2S(=O)(=O)c2ccccc2)c(OC)c1", "Potency": "inconclusive: 35.5 µM [activator, partial curve, poor fit]"}, {"smiles": "O=C1CCC(C(=O)OCC(=O)N2N=C3/C(=C/c4ccccc4)CCCC3C2c2ccccc2)N1", "note": "(stereo unspecified)", "Potency": "inconclusive: 35.5 µM [activator, partial curve]"}, {"smiles": "Cc1cccc(CNC(=O)c2cc3cc(S(=O)(=O)N4CCCCC4)ccc3n2C)c1", "Potency": "inconclusive: 28.2 µM [activator, single point]"}, {"smiles": "C[C@@H]1CN([C@@H](C)CO)C(=O)c2cccc(NC(=O)Nc3ccc(F)cc3)c2O[C@@H]1CN(C)Cc1ccc(Oc2ccccc2)cc1", "Potency": "inconclusive: 22.4 µM [activator, partial curve]"}, {"smiles": "C#CCn1c(=NC(=O)c2ccc(S(=O)(=O)N3CCCc4ccccc43)cc2)sc2cc(S(N)(=O)=O)ccc21", "Potency": "inconclusive: 31.6 µM [activator, partial curve, poor fit]"}, {"smiles": "Cc1cccc(OCC(O)Cn2c(NCCCOC(C)C)nc3c2c(=O)[nH]c(=O)n3C)c1", "note": "(stereo unspecified)", "Potency": "inconclusive: 50.1 µM [activator, partial curve, poor fit]"}, {"smiles": "CCOc1ccccc1C(=O)Nc1nnc(CC)s1", "Potency": "inconclusive: 17.8 µM [activator, partial curve]"}, {"smiles": "Cc1ccc2nc(NC(=O)COC(=O)c3ccc(Br)o3)sc2c1", "Potency": "inconclusive: 25.1 µM [activator, partial curve]"}, {"smiles": "COc1ccccc1C1CC(c2ccccc2)=NN1C(=O)c1ccccc1", "note": "(stereo unspecified)", "Potency": "inconclusive: 22.4 µM [activator, single point]"}]}]}
